{
  "source": "patent US20250222123A1",
  "about": "“COMPOUND COMPRISING FC-BINDING UNIT, AND CONJUGATE PREPARED USING SAME” (ABTIS CO., LTD., priority 2022, published 2025)",
  "key": {"[1]": {"test_system": "CLDN18.2-negative cell lines", "assay": "Cytotoxicity evaluation, summary over negative lines", "type": "cell-based", "details": "up to the highest treatment concentration (10000 ng/ml)", "protocol": "(§1) Four types of cell lines (MIA PaCa-2˜CLDN18.2, PATU8988S, parental MIA PaCa-2 (CLDN18.2-), SNU601, NUGC-4, and AGS) were prepared. MIA PaCa-2˜CLDN18.2 and PATU8988S are CLDN18.2-positive pancreatic cancer cell lines. MIA PaCa-2 (CLDN18.2-) is a CLDN18.2-negative pancreatic cancer cell line. SNU601 and NUGC-4 are CLDN18.2-positive gastric cancer cell lines. AGS is a CLDN18.2-negative gastric cancer cell line.\n(§2) The prepared cell lines were cultured in DMEM comprising 10% FBS and 1% penicillin/streptomycin (MIA PaCa-2˜CLDN18.2, and MIA PaCa-2 (CLDN18.2-)), RPMI1640 containing 10% FBS and 1% penicillin/streptomycin (SNU601, NUGC-4, and AGS), and DMEM comprising 5% FBS, 5% horse serum, 1% penicillin/streptomycin, and […] L-glutamine (PATU8988S) in an incubator under the conditions of 37° C. and 5% CO2. […]\n(§3) Changes in cell viability according to treatment of each test substance were measured using a method which is the same as the CellTiter-Glo manual. At this time, the measured values are illustrated in FIGS. 45 to 50.\n(§4) The measured results were used for regression analysis in GraphPad PRISM® 9.0 software to calculate IC50. The cytotoxicity of each test substance was evaluated based on the calculated values."}, "[2]": {"test_system": "CLDN18.2-positive cancer cell lines", "assay": "Cytotoxicity evaluation, summary over positive lines", "type": "cell-based", "protocol": "as §1, §2, §3, §4"}},
  "data": [
    {"molecule": "ADC-A (conjugate) heavy: QVQLVESGGGVVQPGRSLRLSCAASGFSLTTYGVHWVRQAPGKGLEWVAVIWAGGSTNYNSALMSRFTISRDNSKNTLYLQMNSLRAEDTAVYYCARAAYYGNGLDYWGQGTMVTVSS[… human IgG1 constant region …] light: DIVMTQSPLSLPVTPGEPASISCKSSQTLLNSGNQKNYLTWYLQKPGQSPQLLIYWASTGESGVPDRFSGSGSGTDFTLKISRVEAEDVGVYYCQNAYFYPFTFGGGTKVEIKRTVAAPSVFIFPPSDEQLKSGTASVVCLLNNFYPREAKVQWKVDNALQSGNSQESVTEQDSKDSTYSLSSTLTLSKADYEKHKVYACEVTHQGLSSPVTKSFNRGEC", "values": [
      {"measurement": "toxicity (in words)", "setting": "[1]", "value": "almost no toxicity"},
      {"measurement": "IC50 value lower than that of ADC-B", "setting": "[2]; ADC-B as control", "value": "10 to 35", "unit": "fold"},
      {"measurement": "anticancer activity (in words)", "setting": "[2]; regardless of cancer type", "value": "exhibited anticancer activity"}
    ]}
  ]
}
